Results: PubChem BioAssay AID1745853 (National Center for Advancing Translational Sciences (NCATS), 2022)
Some of the results follow. Further columns of the screen follow, without active or inactive calls.

Assays:
Experiment in all cases: Primary Screen for Target Class Profiling of Small Molecule Inhibitors of Methyltransferases
[1] = target: Glycine N-methyltransferase (Homo sapiens) (UniProt Q14749); conditions: purified enzyme, MTase-Glo SAH luminescence; measured here: GNMT inhibition; at 40 µM; stronger effect = lower value
Outline: (§1)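 Each enzyme was reacted with SAM and its substrate, with compounds tested once at 40 uM; SAH formed was read by MTase-Glo luminescence.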

[2] = target: Guanidinoacetate N-methyltransferase (Homo sapiens) (UniProt Q14353); conditions: purified enzyme, MTase-Glo SAH luminescence; measured here: GAMT inhibition; at 40 µM; stronger effect = lower value
Outline: as §1

[3] = target: Histamine N-methyltransferase (Homo sapiens) (UniProt P50135); conditions: purified enzyme, MTase-Glo SAH luminescence; measured here: HNMT inhibition; at 40 µM; stronger effect = lower value
Outline: as §1

[4] = target: Nicotinamide N-methyltransferase (Homo sapiens) (UniProt P40261); conditions: purified enzyme, MTase-Glo SAH luminescence; measured here: NNMT inhibition; at 40 µM; stronger effect = lower value
Outline: as §1

[5] = target: Phenylethanolamine N-methyltransferase (Homo sapiens) (UniProt P11086); conditions: purified enzyme, MTase-Glo SAH luminescence; measured here: PNMT inhibition; at 40 µM; stronger effect = lower value
Outline: as §1
On the % scale 0 is the no-effect control and ±100 the full control effect.

Molecule `CCC(C)NC(=O)c1ccc2c(=O)n(C(C)C)c3nn(CC(=O)Nc4ccccc4F)c(=O)n3c2c1` (stereo not drawn) has an activity change, negative = inhibition [1] of 4.64%, an activity change, negative = inhibition [2] of 0% and an activity change, negative = inhibition [3] of 3.97%. It also gave an activity change, negative = inhibition [4] of 3.2% and an activity change, negative = inhibition [5] of 0.827%.

`CC(C)CCn1c(=O)c2ccc(C(=O)NC3CCCC3)cc2n2c(=O)n(CC(=O)c3ccccc3)nc12` was tested, and the activity change, negative = inhibition [1] was -4.82%, the activity change, negative = inhibition [2] was 1.47% and the activity change, negative = inhibition [3] was -3.36%. The activity change, negative = inhibition [4] was -6.75% and the activity change, negative = inhibition [5] was -3.57%.

For `COCc1nc(C2CC(N)C2)cc(N2CCC(Cn3cccn3)CC2)n1` (stereo not drawn), the activity change, negative = inhibition [1] was 2.13%, the activity change, negative = inhibition [2] was 1.61% and the activity change, negative = inhibition [3] was 2.7%. For the same molecule, the activity change, negative = inhibition [4] was -2.87% and the activity change, negative = inhibition [5] was 4.95%.

`COc1ccc(OC)c(CNS(=O)(=O)c2cc3[nH]c(=O)[nH]c3cc2C)c1` gave an activity change, negative = inhibition [1] of 13%, an activity change, negative = inhibition [2] of 1.17% and an activity change, negative = inhibition [3] of 14%. The activity change, negative = inhibition [4] was 6.42% and the activity change, negative = inhibition [5] was 9.51%.

Work on `CCC1C(=O)NCCN1Cc1cn(-c2cccc(F)c2)nc1-c1ccc(C)o1` (stereo not drawn) yielded an activity change, negative = inhibition [1] of -25.5%, an activity change, negative = inhibition [2] of -4.51% and an activity change, negative = inhibition [3] of -2.49%. For the same molecule, the activity change, negative = inhibition [4] was -6.26% and the activity change, negative = inhibition [5] was -15.8%.

For `CCCn1c(=O)c2ccccc2n2c(=O)n(Cc3ccccc3Cl)nc12`, the activity change, negative = inhibition [1] was 0.843%, the activity change, negative = inhibition [2] was 6.8% and the activity change, negative = inhibition [3] was 7.92%. It also gave an activity change, negative = inhibition [4] of -9.33% and an activity change, negative = inhibition [5] of 4.77%.

With `CC1(C)CC[C@]2(C(=O)O)CC[C@]3(C)C(=CCC4[C@@]5(C)C[C@@H](O)[C@H](O)[C@@](C)(CO)C5CC[C@]43C)C2C1` (stereo partly drawn) the activity change, negative = inhibition [1] was 3.64%, the activity change, negative = inhibition [2] was 5.22% and the activity change, negative = inhibition [3] was 6.05%. The activity change, negative = inhibition [4] was -6.94% and the activity change, negative = inhibition [5] was -0.904%.

For `CCN(Cc1nccn1C)C(=O)c1ccc(N2CCC(COC)C2)nc1` (stereo not drawn), the activity change, negative = inhibition [1] was -2.4%, the activity change, negative = inhibition [2] was -1.76% and the activity change, negative = inhibition [3] was 0.271%. The activity change, negative = inhibition [4] was -2.58% and the activity change, negative = inhibition [5] was -1.97%.

Molecule `CSc1ccc(CCNC(=O)c2oc3cc4sc(N(C)C)nc4cc3c2C)cc1` has an activity change, negative = inhibition [1] of 4.79%, an activity change, negative = inhibition [2] of 0% and an activity change, negative = inhibition [3] of 5.88%. The activity change, negative = inhibition [4] was 10.3% and the activity change, negative = inhibition [5] was 3.25%.

With `CC1=CCC(O)C2(C)CCC3C(C)C(=O)OC3C12` (stereo not drawn) the activity change, negative = inhibition [1] was -5.17%, the activity change, negative = inhibition [2] was -6.09% and the activity change, negative = inhibition [3] was 3.88%. For the same molecule, the activity change, negative = inhibition [4] was -15.9% and the activity change, negative = inhibition [5] was -12.5%.

For `CC1(C(=O)NC2CCCCCC2)Cn2c(cc3sccc32)C(=O)N1CCCc1ccccc1` (stereo not drawn), the activity change, negative = inhibition [1] was 1.5%, the activity change, negative = inhibition [2] was 2.19% and the activity change, negative = inhibition [3] was 4.72%. The activity change, negative = inhibition [4] was 4.01% and the activity change, negative = inhibition [5] was -1.18%.

With `CCOC(=O)c1cc2n(n1)CC(C)(C(=O)NCc1ccccc1)N(c1ccccc1C)C2=O` (stereo not drawn) the activity change, negative = inhibition [1] was 4.51%, the activity change, negative = inhibition [2] was 0% and the activity change, negative = inhibition [3] was 3.94%. For the same molecule, the activity change, negative = inhibition [4] was 3.47% and the activity change, negative = inhibition [5] was 1.3%.

In the case of `COc1ccc(/C=C/C(=O)O[C@@H]2[C@@H](O[C@@H]3O[C@H](CO)[C@@H](O)[C@H](O)[C@H]3O)[C@@H](O)[C@H](O[C@H]3C4C=CO[C@@H](O[C@@H]5O[C@H](CO)[C@@H](O)[C@H](O)[C@H]5O)C4[C@@]4(CO)O[C@@H]34)O[C@H]2C)cc1` (stereo partly drawn), the activity change, negative = inhibition [1] is reported as -2.7%, the activity change, negative = inhibition [2] is reported as -7.65% and the activity change, negative = inhibition [3] is reported as 6.98%. The activity change, negative = inhibition [4] was -20.5% and the activity change, negative = inhibition [5] was -7.94%.

`Cc1ccccc1-c1cc(O)c2c(c1)CN(C(=O)C1CCNCC1)CCO2` was tested, and the activity change, negative = inhibition [1] was -9.74%, the activity change, negative = inhibition [2] was -0.016% and the activity change, negative = inhibition [3] was -8.82%. The activity change, negative = inhibition [4] was -6.67% and the activity change, negative = inhibition [5] was -2.02%.

Molecule `COCC1(CNCC2CCCC2)C[C@@H](O)[C@@H](O)C1` (stereo partly drawn) has an activity change, negative = inhibition [1] of -1.25%, an activity change, negative = inhibition [2] of -6.58% and an activity change, negative = inhibition [3] of -2.95%. It also gave an activity change, negative = inhibition [4] of -8.76% and an activity change, negative = inhibition [5] of -28.8%.

Molecule `O=S1(=O)CC(COCc2ccccc2)CN1c1ccccc1` (stereo not drawn) has an activity change, negative = inhibition [1] of -0.527%, an activity change, negative = inhibition [2] of 1.2% and an activity change, negative = inhibition [3] of 1.25%. It also gave an activity change, negative = inhibition [4] of -2.67% and an activity change, negative = inhibition [5] of -2.17%.

`Cc1ccc(C)c(CSc2nnc3n(C)c(=O)c4ccc(C(=O)NC5CCCC5)cc4n23)c1` gave an activity change, negative = inhibition [1] of -2.11%, an activity change, negative = inhibition [2] of 1.08% and an activity change, negative = inhibition [3] of 8.49%. For the same molecule, the activity change, negative = inhibition [4] was 6.78% and the activity change, negative = inhibition [5] was 0.503%.

`Cc1nc(C2CCN(C(=O)[C@H]3CNC[C@H](C(=O)N4CCCC4)C3)CC2)n[nH]1` gave an activity change, negative = inhibition [1] of -2.84%, an activity change, negative = inhibition [2] of -1.7% and an activity change, negative = inhibition [3] of -1.32%. The activity change, negative = inhibition [4] was -1.08% and the activity change, negative = inhibition [5] was 1.86%.

`C[C@@H](NCCCc1cccc(C(F)(F)F)c1)c1cccc2ccccc12` was tested, and the activity change, negative = inhibition [2] was 8.78%, the activity change, negative = inhibition [4] was -11.3% and the activity change, negative = inhibition [5] was -2.04%.

`CC(=O)Nc1cccc(-n2c(=O)n(C3CC3)c(=O)c3c(Nc4ccc(I)cc4F)n(C)c(=O)c(C)c32)c1` showed an activity change, negative = inhibition [1] of -6.38%, an activity change, negative = inhibition [2] of 5.13% and an activity change, negative = inhibition [3] of 7.92%. For the same molecule, the activity change, negative = inhibition [4] was -12.7% and the activity change, negative = inhibition [5] was 6.05%.

`COc1cccc(CNC(=O)N2Cc3c(sc4c3CCCC4)-n3cccc3C2c2ccccc2)c1` (stereo not drawn) gave an activity change, negative = inhibition [1] of -9.72%, an activity change, negative = inhibition [2] of -3% and an activity change, negative = inhibition [3] of 2.09%. For the same molecule, the activity change, negative = inhibition [4] was -18.5% and the activity change, negative = inhibition [5] was -2.56%.

Molecule `Cc1sc2cc(C(=O)NC(C)C)[nH]c2c1CN1CCCCC1` has an activity change, negative = inhibition [1] of -1.99%, an activity change, negative = inhibition [2] of -0.485% and an activity change, negative = inhibition [3] of -4.13%. It also gave an activity change, negative = inhibition [4] of -4.55% and an activity change, negative = inhibition [5] of -6.9%.

`CC1CCC(NC(=O)C2(C)Cn3c(cc4occc43)C(=O)N2Cc2cccc(Cl)c2)CC1` (stereo not drawn) showed an activity change, negative = inhibition [1] of -3.35%, an activity change, negative = inhibition [2] of 3.1% and an activity change, negative = inhibition [3] of -5.22%. The activity change, negative = inhibition [4] was -9.05% and the activity change, negative = inhibition [5] was -8.94%.

`Cc1cc2c(cc3n2CC(C)(C(=O)NC2CCCCCC2)N(C(C)CCc2ccccc2)C3=O)o1` (stereo not drawn) was tested, and the activity change, negative = inhibition [1] was 1.32%, the activity change, negative = inhibition [2] was 0% and the activity change, negative = inhibition [3] was 6.87%. It also gave an activity change, negative = inhibition [4] of -3.06% and an activity change, negative = inhibition [5] of -1.05%.

In the case of `Cc1ccc(Cn2c(=O)c3ccccc3n3c(=O)n(CC(=O)NCc4ccccc4Cl)nc23)cc1`, the activity change, negative = inhibition [1] is reported as 1.69%, the activity change, negative = inhibition [2] is reported as 1.98% and the activity change, negative = inhibition [3] is reported as 2.47%. It also gave an activity change, negative = inhibition [4] of -0.888% and an activity change, negative = inhibition [5] of 0.911%.

Molecule `COc1ccc(C(=O)N2CCC(n3c(C)cnc3-c3ccncc3)C2)c(OC)c1` (stereo not drawn) has an activity change, negative = inhibition [1] of -3.56%, an activity change, negative = inhibition [2] of -4.22% and an activity change, negative = inhibition [3] of -0.898%. It also gave an activity change, negative = inhibition [4] of -8.3% and an activity change, negative = inhibition [5] of -4.19%.

`COc1ccc(CN2CCN(C(=O)CCNC(=O)c3ccc(C(C)(C)C)cc3)CC2)cc1` gave an activity change, negative = inhibition [1] of -1.68%, an activity change, negative = inhibition [2] of 10.8% and an activity change, negative = inhibition [3] of 10.4%. It also gave an activity change, negative = inhibition [4] of -22.4% and an activity change, negative = inhibition [5] of 2.23%.

`O=C(CCc1conc1-c1ccc(F)cc1)NCC1CCCO1` (stereo not drawn) gave an activity change, negative = inhibition [1] of -4.92%, an activity change, negative = inhibition [2] of -3.67% and an activity change, negative = inhibition [3] of -1.61%. The activity change, negative = inhibition [4] was -9.11% and the activity change, negative = inhibition [5] was -6.1%.

In the case of `Cc1nc2c(C(F)(F)F)cccc2nc1-c1ccc(-c2cccc(S(C)(=O)=O)c2)cc1`, the activity change, negative = inhibition [1] is reported as -3.23%, the activity change, negative = inhibition [2] is reported as -16.7% and the activity change, negative = inhibition [3] is reported as 3.4%. For the same molecule, the activity change, negative = inhibition [4] was -20.8% and the activity change, negative = inhibition [5] was -10.3%.
